Measured values: PubChem BioAssay AID485294 (National Center for Advancing Translational Sciences (NCATS), 2010)
The whole screen tested about 370,000 compounds, of which about 150 (0.041%) were called active. The shares of active, inactive and inconclusive entries below differ from those in the screen. The call rests on the fitted dose curve; in most records, active means well fitted inhibition curve with a large enough effect; inconclusive means small, poorly fitted or top-dose-only effect; inactive means flat fitted curve, though single readings scatter. No potency is given beside an inconclusive call; the fits are too rough.

Molecular target: Beta-lactamase (Escherichia coli (strain K12)) (UniProt P00811)
Assay: qHTS Inhibitors of AmpC Beta-Lactamase (assay with detergent); further: nearly all actives have a fitted effect of over 25% in size
Conditions: AmpC hydrolysis of nitrocefin, absorbance 480 nm, 0.01% Triton; series mostly up to 114 µM
Procedure: NIH Molecular Libraries Probe Production Network [MLPCN] NIH Chemical Genomics Center [NCGC] Assay Provider: Professor Brian Shoichet, UCSF Assay Overview: This aggregation profiling approach exploits the sensitivity of aggregate formation to detergent. Inhibition of b-lactamase is measured in the presence and absence of 0.01% Triton X-100. This particular assay had the prescence of 0.01% Triton X-100. See Pubchem assay "Promiscuous and Specific Inhibitors of AmpC Beta-Lactamase (assay without detergent)" for related screen. Compounds that inhibit only in the absence of detergent are considered likely promiscuous aggregators. A screen of 1,030 compounds was performed in Brian Shoichet's lab in 96-well format. AmpC activity was measured by following the absorbance at 480 nm. Nitrocefin is a chromogenic substrate: while nitrocefin is yellow (lmax 390 nm), the product of its hydrolysis is red (lmax 486 nm, 17,000 M-1). AmpC beta lactamase was provided by Shoichet Lab, UCSF.
Buffer: 20 mM phosphate buffer, pH 7.0 Triton X-100: No Detergent screen: 0.0001%, Detergent screen: 0.01%. Reagents/Controls: Buffer in columns 3 and 4 as negative control (no enzyme). 5.3 nM AmpC in columns 1, 2, 5-48. Titration of UCSF compound 9 control (from 10 mM, then 1:2) pin-transferred to column 2. Column 1 is neutral (100% activity). Assay Steps: Six uL of reagents were dispensed to 1536-well Greiner black clear bottom plates. Compounds and controls (23 nL) were transferred via Kalypsys PinTool. The plates were incubated for 15 min at room temperature, and then 2 uL of 800 uM solution of nitrocefin was added to start the reaction. The plates were immediately transferred to and read every 20 seconds for 4 min on ViewLux (Perkin-Elmer) High-throughput CCD imager using 480 nm absorbance protocol. During dispense, reagent bottles were kept submerged into 4 deg C water bath. Keywords: NIH Roadmap, MLSCN, MLI, MLSMR, qHTS, NCGC, AmpC Beta-Lactamase, Aggregation
Potency means the concentration at half of the fitted maximal effect; tags describe the fitted curve by direction and shape.

Sequence of UniProt P00811 (P00811 whole entry, looked up): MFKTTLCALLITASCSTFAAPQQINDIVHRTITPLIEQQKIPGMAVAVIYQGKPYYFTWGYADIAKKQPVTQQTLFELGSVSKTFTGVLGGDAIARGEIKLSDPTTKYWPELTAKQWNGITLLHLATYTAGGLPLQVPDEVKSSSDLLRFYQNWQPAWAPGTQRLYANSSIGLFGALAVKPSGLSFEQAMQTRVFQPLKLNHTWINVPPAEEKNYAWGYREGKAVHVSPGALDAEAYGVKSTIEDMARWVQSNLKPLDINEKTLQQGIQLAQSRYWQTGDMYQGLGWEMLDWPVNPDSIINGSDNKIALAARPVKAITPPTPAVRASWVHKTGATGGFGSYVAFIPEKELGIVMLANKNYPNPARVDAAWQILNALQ

| SMILES | Potency |
| --- | --- |
| CCn1nc2cc(C(=O)NCCc3cccs3)ccc2c1OC | inactive |
| Nc1c(C(=O)Nc2ccccc2Cl)nnn1Cc1cccc(Cl)c1 | inactive |
| N#C/C(=C\c1ccc(OCc2ccc(C(=O)O)cc2)cc1)C(=O)N1CCOCC1 | inactive |
| CC(C)c1ccc(NCCC(=O)c2ccc(Br)cc2)cc1 | inconclusive [inhibitor, single point] |
| CCC(C(=O)OCC(=O)c1ccc(OC)cc1OC)c1ccccc1 (configuration not stated) | inconclusive [inhibitor, full curve, poor fit] |
| Cc1cc(C)cc(NC(=O)C2CCCN(S(=O)(=O)c3cnc[nH]3)C2)c1 (configuration not stated) | inconclusive [inhibitor, full curve, poor fit] |
| O=C(Nc1cccnc1)c1ccccc1Cl | inconclusive [inhibitor, full curve, poor fit] |
| CC(=O)c1sc(NC(=O)c2cc(=O)c3ccccc3o2)nc1C | inactive |
| O=C(Cc1ccccc1Cl)NNC(=O)Nc1ccccc1 | inconclusive [inhibitor, partial curve] |
| CCOC(=O)C1=C(CC)Nc2ccccc2N=C1NC(=O)c1ccc(OC)c(S(=O)(=O)N2CCCCC2C)c1 (configuration not stated) | inconclusive [inhibitor, full curve, poor fit] |
| CCOc1ccc(C(O)c2nccn2C)cc1 (configuration not stated) | inactive |
| CCOC(=O)c1[nH]c(C)c(C(=O)OCC(=O)NC(=O)NC(C)(C)C)c1C | inconclusive [inhibitor, full curve, poor fit] |
| Cc1ccccc1CNCCCSc1nnnn1-c1ccccc1 | inactive |
| CCCCCC(=O)N[C@@H](c1ccccc1)[C@@H](O)C(=O)O[C@H]1C[C@@]2(O)[C@@H](OC(=O)c3ccccc3)C3[C@](C)(C(=O)[C@H](OC(C)=O)C(=C1C)C2(C)C)[C@@H](O)C[C@H]1OC[C@@]31OC(C)=O (some centres not stated) | inconclusive [inhibitor, full curve, poor fit] |
| COc1ccc(N2CCN(S(=O)(=O)/C=C/c3ccccc3)CC2)cc1 | inconclusive [inhibitor, full curve] |
| COc1ccc(NC(=S)N(CCCN2CCOCC2)C(C)c2cc3ccccc3o2)cc1 (configuration not stated) | inconclusive [inhibitor, single point] |
| Nc1cc(C(=O)O)ccc1N1CCCCC1 | inconclusive [inhibitor, partial curve, poor fit] |
| CCCCc1nnc(NC(=O)C2=COCCO2)s1 | inconclusive [inhibitor, partial curve] |
| CCOc1cccc(CNCCO)c1OCc1ccc(Cl)cc1Cl | inconclusive [inhibitor, single point] |
| CCC(C)NCCCOc1ccc(Cl)cc1C(C)(C)C (configuration not stated) | inactive |
| Cc1ccccc1SCC(=O)Nc1cccc(C#N)c1 | inconclusive [inhibitor, full curve, poor fit] |
| Cc1c(C)c2ccc(OCC(=O)NCCN3CCOCC3)cc2oc1=O | inconclusive [inhibitor, full curve, poor fit] |
| COC(=O)Nc1ccc(S(=O)(=O)Nc2ccc(C)cc2)cc1 | inconclusive [inhibitor, full curve, poor fit] |

| SMILES | Potency |
| --- | --- |
| CCN(Cc1nc(-c2ccc(OC)cc2)oc1C)S(=O)(=O)c1ccc(Cl)cc1 | inactive |
| Cc1cccc(-n2ncc3c(N4CCCc5ccccc54)ncnc32)c1 | inconclusive [inhibitor, full curve, poor fit] |
| O=C(N/N=C/c1ccc2c(c1)OCCO2)c1ccncc1 | inactive |
| COc1ccc(O)c(-c2nc(N)nc(N)n2)c1 | inactive |
| COc1ccc(CN(C(=O)COc2ccc(C)c(C)c2)C2CCS(=O)(=O)C2)cc1OC (configuration not stated) | inconclusive [inhibitor, full curve] |
| Cc1ccc2cc(CCNC(=O)C3CCCC3)c(=O)[nH]c2c1 | inconclusive [inhibitor, full curve] |
| Cc1cc(NC(=O)CSc2nnc(-c3ccc(S(=O)(=O)N4CCCC4)cc3)n2C)no1 | inconclusive [inhibitor, full curve, poor fit] |
| Cc1ccc(S(=O)(=O)Cn2nnnc2C(C(C)C)N2CCN(Cc3ccco3)CC2)cc1 (configuration not stated) | inconclusive [inhibitor, full curve, poor fit] |
| Cc1nn(C)c(C(=O)NC(=S)Nc2ccc([N+](=O)[O-])cc2)c1Cl | inactive |
| COc1ccc(NS(=O)(=O)c2ccc3ccccc3c2)c2ncccc12 | inconclusive [inhibitor, full curve, poor fit] |
| O=C(CN1C(=O)NC2(CCCCCCC2)C1=O)NCc1ccc2c(c1)OCO2 | inactive |
| Cn1c(SCc2ccccc2)nnc1-c1ccncc1 | inconclusive [inhibitor, partial curve, poor fit] |
| O=C(NNS(=O)(=O)c1ccccc1)c1ccc(S(=O)(=O)N2CCCCC2)cc1 | inconclusive [inhibitor, full curve, poor fit] |
| CCOC(=O)c1c(C)[nH]c(C)c1S(=O)(=O)N(C)CC(=O)Nc1cc(Cl)ccc1OC | inactive |
| COc1cc(/C=C/CN2CCN(Cc3ccc(C)o3)C(CCO)C2)ccc1O (configuration not stated) | inactive |
| COc1ccc(C(=O)CSc2nnc(-c3ccccn3)n2Cc2ccco2)cc1 | inconclusive [inhibitor, partial curve, poor fit] |
| COc1ccc(C)cc1S(=O)(=O)N(CC(=O)NCc1ccc(Cl)cc1)Cc1ccccc1 | inactive |
| CC(=O)Nc1ccc(C(=O)OCc2ccccc2Cl)cc1 | inconclusive [inhibitor, single point] |
| COc1cccc(CCNCc2c(F)cccc2F)c1 | inconclusive [inhibitor, full curve, poor fit] |
| O=C(CSC1=Nc2ccccc2C2=NC(CCC(=O)NC3CCCCC3)C(=O)N12)Nc1cccc(Cl)c1 (configuration not stated) | inactive |
| Nc1cc(Cl)ccc1N1CCCC1 | inconclusive [inhibitor, full curve, poor fit] |
| Cc1nc2ccc(NS(=O)(=O)c3ccccc3F)cc2s1 | inconclusive [inhibitor, full curve, poor fit] |
| Cc1ccc(C(=O)C2CN3CCC2CC3)cc1 (configuration not stated) | inactive |

| SMILES | Potency |
| --- | --- |
| Oc1cccc(Nc2nc(-c3ccccc3)nc3ccccc23)c1 | inconclusive [inhibitor, full curve, poor fit] |
| O=C(CC1CCCC1)Nc1nnc(C2CC2)s1 | inconclusive [inhibitor, partial curve, poor fit] |
| O=C(COC(=O)COc1cccc(Br)c1)Nc1ccc(F)cc1F | inconclusive [inhibitor, single point] |
| Cn1c(Cn2nnc3ccccc32)nnc1SCC(=O)Nc1nccs1 | inconclusive [inhibitor, full curve, poor fit] |
| NC(=S)/N=C/c1c(O)[nH]c(=O)[nH]c1=O | inconclusive [inhibitor, full curve, poor fit] |
| O=C(O)c1cc(N/N=C/c2ccc(N3CCOCC3)s2)ccc1Cl | inconclusive [inhibitor, full curve, poor fit] |
| COc1ccccc1CNc1ccc(C(=O)O)cc1 | inconclusive [inhibitor, full curve] |
| Cc1c(Cl)ccc2c1NC(=O)[C@]21N[C@@H](CCC(N)=O)[C@H]2C(=O)N(c3ccc(F)cc3)C(=O)[C@H]21 | inconclusive [inhibitor, partial curve, poor fit] |
| CCOC(=O)N1CCN(C2CC(=O)N(c3ccc(C)cc3)C2=O)CC1 (configuration not stated) | inconclusive [inhibitor, single point] |
| N#Cc1nc(Cc2cccc3ccccc23)oc1NCCCN1CCOCC1 | inconclusive [inhibitor, full curve, poor fit] |
| CCCn1cnc2cc(NCc3cccc(OC)c3O)ccc21 | inactive |
| O=C(NCCN1C(=O)S/C(=C\c2cccc(Cl)c2Cl)C1=O)C1=COCCO1 | inconclusive [inhibitor, full curve] |
| N#Cc1ncc(-c2ccc3c(c2)OCCOCCOCCOCCOCCO3)nc1C#N | inconclusive [inhibitor, partial curve] |
| O=C(Cn1c(=O)n(-c2ccccc2)c(=O)c2ccc(C(=O)NCc3ccc4c(c3)OCO4)cc21)Nc1ccc(Br)cc1F | inactive |
| Cc1c([N+](=O)[O-])c([N+](=O)[O-])nn1CC(=O)NCCc1ccccc1 | inconclusive [inhibitor, partial curve, poor fit] |
| N#Cc1cnn2ccn(C3OC(CO)C(O)C3O)c12 (configuration not stated) | inactive |
| O=C(CSc1nnc(COc2ccccc2)n1-c1ccccc1)c1ccccc1 | inconclusive [inhibitor, full curve, poor fit] |
| CC(=O)Oc1ccc(/C(C)=N\N2CCN(Cc3ccc(Cl)cc3)CC2)cc1 | inconclusive [inhibitor, partial curve, poor fit] |
| O=C(NC1=NCCS1)c1cccc(S(=O)(=O)N2CCCCC2)c1 | inconclusive [inhibitor, full curve, poor fit] |
| Cc1cccc(C(=O)Nc2ccc(S(=O)(=O)N3CCOCC3)cc2C)c1 | inconclusive [inhibitor, full curve, poor fit] |
| COc1ccc2c(c1)C1(Nc3ccccc3-c3nc4ccccc4n31)C(=O)N2C (configuration not stated) | inactive |
